This note sets out measurements from paper PMC4336329 (PLoS ONE, 2015).

The campaign covered roughly 310,000 compounds. About 14,000 (4.5%) showed an effect of 50% or more. The effect is printed as a negative number. This is one part of the list.
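Also: peak tail current of the secondary pulse compared with the same well before compound.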

For the experiment, the target named is human ether-à-go-go-related gene (hERG) potassium channel (human, UniProt Q12809). Briefly: primary screen, population patch clamp on CHO cells stably expressing hERG.
Chain of human ether-à-go-go-related gene (hERG) potassium channel (Q12809 whole entry, looked up): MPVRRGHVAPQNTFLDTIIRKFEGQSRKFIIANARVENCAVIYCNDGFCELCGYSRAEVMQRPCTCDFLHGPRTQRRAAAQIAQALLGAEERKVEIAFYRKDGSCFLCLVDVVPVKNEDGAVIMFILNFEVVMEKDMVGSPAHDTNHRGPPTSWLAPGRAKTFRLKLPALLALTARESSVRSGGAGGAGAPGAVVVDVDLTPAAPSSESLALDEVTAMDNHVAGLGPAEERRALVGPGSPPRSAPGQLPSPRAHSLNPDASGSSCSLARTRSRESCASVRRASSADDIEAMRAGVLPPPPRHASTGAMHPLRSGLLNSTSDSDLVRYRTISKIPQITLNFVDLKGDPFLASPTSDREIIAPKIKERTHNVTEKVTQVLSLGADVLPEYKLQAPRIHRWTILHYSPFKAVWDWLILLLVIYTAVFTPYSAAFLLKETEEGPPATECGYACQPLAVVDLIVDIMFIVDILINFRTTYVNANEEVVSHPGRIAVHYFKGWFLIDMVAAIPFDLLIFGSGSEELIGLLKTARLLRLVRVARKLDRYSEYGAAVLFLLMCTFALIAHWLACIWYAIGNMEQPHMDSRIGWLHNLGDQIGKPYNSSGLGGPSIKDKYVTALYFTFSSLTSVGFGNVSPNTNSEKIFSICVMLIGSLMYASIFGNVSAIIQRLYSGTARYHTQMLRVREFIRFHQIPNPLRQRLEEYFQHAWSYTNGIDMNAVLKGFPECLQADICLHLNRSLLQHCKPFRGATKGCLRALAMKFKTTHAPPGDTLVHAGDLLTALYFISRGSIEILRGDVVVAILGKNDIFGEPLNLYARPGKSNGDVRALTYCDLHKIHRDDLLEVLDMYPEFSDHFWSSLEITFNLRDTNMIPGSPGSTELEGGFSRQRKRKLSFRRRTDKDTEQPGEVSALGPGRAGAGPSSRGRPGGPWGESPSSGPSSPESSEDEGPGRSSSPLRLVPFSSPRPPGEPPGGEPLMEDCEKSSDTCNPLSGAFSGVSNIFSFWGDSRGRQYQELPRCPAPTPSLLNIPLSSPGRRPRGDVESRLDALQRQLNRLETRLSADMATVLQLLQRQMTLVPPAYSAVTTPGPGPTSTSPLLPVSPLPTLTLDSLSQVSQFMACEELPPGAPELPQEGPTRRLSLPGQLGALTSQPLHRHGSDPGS
On to `COc1cccc(NC(=S)Nc2ccc(Br)cc2Cl)c1`, for which the “hERG current change (%, negative = inhibition) at 10uM” value is recorded as 18.1%.
On to `CCOC(=O)C(CC)(CC)C(=O)/C=C/c1ccc(Br)cc1`, for which the “hERG current change (%, negative = inhibition) at 10uM” value worked out at 5.02%.
Next, `CCn1c(SCC(=O)NC2CCCc3ccccc32)nnc1-c1ccncc1` (centres unmarked): -9.78%; `CCCCCCCN1CCC(=O)N([C@H](CO)Cc2ccccc2)CC1`: -78.8%.
Next, `COc1ccc(CN(Cc2cc3cc4c(cc3[nH]c2=O)OCO4)C(=O)NC2CCCCC2)cc1`: -17.6%; `COc1ccc(OCC(O)CN2CCCCCC2)cc1` (centres unmarked): 9.18%; `COC(=O)c1c(NC(=O)COC(=O)c2ccc(O)cc2)sc2c1CCCCC2`: 17%.
Next, `O=c1cc(CSc2ccc(Cl)cc2)nc(-c2ccccn2)[nH]1`: -0.0469%; `O=C(CC1CCCCC1)Nc1ccc(-c2ccc3nncn3n2)cc1`: 6.41%; `COc1ccc(S(=O)(=O)N2CC3CCCN3c3ccc(C(F)(F)F)cc32)cc1` (centres unmarked): 6.9%.
With `CCc1ccc(S(=O)(=O)NCc2csc(-c3ccccc3)n2)s1`, the “hERG current change (%, negative = inhibition) at 10uM” value is -9.83%.
The same measure for `CNC(=O)/C=C/c1cccc(C(F)(F)F)c1`: 4.99%; for `O=C(NCCC1=CCCCC1)NC1CCCCC1`: 8.08%.
Next, `O=C(Cn1c(SCC(=O)NC2CCCC2)nnc1-c1ccncc1)Nc1ccc2c(c1)OCO2`: -11.7%; `CCCC(=O)Nc1sc(C)c(C)c1C#N`: 2.9%; `O=C(NCCCn1ccnc1)c1ccc(Br)c(S(=O)(=O)N2CCOCC2)c1`: -7.41%.
The same measure for `O=C(Nc1ccccc1OC(=O)N1CCOCC1)N1CCOCC1`: 3%; for `COc1ccc(NS(=O)(=O)c2ccc(NS(C)(=O)=O)cc2)cc1`: -16.2%; for `Clc1ccc(C2CC(c3cccs3)n3ncnc3N2)cc1` (centres unmarked): -31.8%.
Turning to `COc1ccc(C(CNC(=O)c2ccc(Cl)c(NC(=O)c3cccs3)c2)N2CCCC2)cc1` (centres unmarked), the “hERG current change (%, negative = inhibition) at 10uM” value is reported as -70.9%.
The same measure for `Clc1nc(NCc2ccco2)nc(N2CCCCC2)n1`: 33.5%.
The same measure for `COc1ccc2c(c1)CC/C(=C\c1ccc(OC)c(Cn3cccn3)c1)C2=O`: -13.1%; for `Cn1cccc1C(=O)OCC(=O)Nc1ccc2c(c1)OCO2`: 20.5%.
The same measure for `O=C(Cc1ccccc1F)Nc1ccc(SC(F)F)cc1`: 14%; for `Cc1ccc(NC(=O)COC(=O)COc2cccc3c2OC(C)(C)C3)cc1C`: -13.9%; for `CCOC(=O)C1CCCN(S(=O)(=O)c2ccc3c(c2)CC(C)N3C(=O)C2CC2)C1` (centres unmarked): 9.65%.
As for `COc1cc(/C=C2\C(=O)N(c3ccc(S(N)(=O)=O)cc3)N=C2C)ccc1OC(=O)c1ccco1`, the “hERG current change (%, negative = inhibition) at 10uM” value is 8.12%.
Next, `O=C(NNC(=O)c1cccc2ccccc12)c1ccc2c(c1)OCO2`: 4.09%; `COC(=O)c1cc(NC(=O)c2cccnc2)cc(C(=O)OC)c1`: 11%.
Regarding `Cc1nc(-c2ccc(F)cc2)c(CC(=O)N(C)CC(=O)Nc2ccccc2C(F)(F)F)s1`, the “hERG current change (%, negative = inhibition) at 10uM” value is listed as 2.06%.
As for `CCC(C)NC(=O)c1cc2c(=O)[nH]c3ccc(C)cc3c2s1` (centres unmarked), the “hERG current change (%, negative = inhibition) at 10uM” value is listed as 18%.
The same measure for `N/C(=N\c1nc2ccccc2o1)NC(=O)c1ccccc1Br`: 12.5%; for `O=C(C1CC(=O)N(c2ccccc2)C1)N1CCN(c2ccccc2)CC1` (centres unmarked): -29%.
The same measure for `CCCCCCCCCCCCN1[C@@H](CC(=O)OC)c2cc(F)cc(F)c2S1(=O)=O`: 11.1%; for `Cc1nc(-c2cccc3ccccc23)ccc1C(=O)O`: 4.26%.
The same measure for `CC(C)(C)c1ccc(O)c(O)c1`: 17.5%.
Take `CC(=O)N1CCc2cc(S(=O)(=O)NCCC3=CCCCC3)ccc21`: the “hERG current change (%, negative = inhibition) at 10uM” value is 12%.
The same measure for `O=C(C1CCCN(Cc2ccccc2F)C1)N1CCCC1.O=C(O)C(=O)O` (centres unmarked): 11.3%; for `S=C(NCc1ccco1)Nc1ccc(N2CCOCC2)cc1`: 0.718%.
Next, `COc1ccc(-c2c[nH]c(=O)[nH]c2=O)cc1OC`: 5.75%.
The same measure for `CCOC(=O)c1cnc2ccc(C(=O)OC)cc2c1Nc1ccc2c(c1)OCCO2`: 16.1%.
Consider `COc1ccc(C2=NO[C@@H]3[C@@H]4C[C@@H]([C@H]5C(=O)N(C)C(=O)[C@@H]45)[C@H]23)c(OC)c1`, for which the “hERG current change (%, negative = inhibition) at 10uM” value is 9.04%.
Next, `Cn1nccc1C(=O)Nc1ccccc1C(=O)O`: 7.27%; `CC(=O)c1ccc(NC(=O)COC(=O)c2nc(Cl)ccc2Cl)cc1`: 12%; `CCOc1ccccc1CN1CCNC(=O)C1CC(=O)N(C)CCc1cnn(C)c1` (centres unmarked): 3.42%.
The same measure for `CC(CN(C)Cc1nc(Cc2cccc(C(F)(F)F)c2)no1)CN1CCCC1` (centres unmarked): -63.2%; for `C=CCOc1nc2c(c(=O)n(C)c(=O)n2C)n1Cc1c(Cl)cccc1Cl`: 2.49%.
As for `CCCC(=O)n1nc(NCc2ccc(OC)cc2)nc1NCc1ccc(OC)cc1`, the “hERG current change (%, negative = inhibition) at 10uM” value came to 4.04%.
Take `Cc1cc(C)nc(N2CCCC(C(=O)NCCc3ccccc3F)C2)n1` (centres unmarked): the “hERG current change (%, negative = inhibition) at 10uM” value was 12.7%.
Next, `CCOc1ccc(NC(=O)c2nsc(Cl)c2Cl)cc1`: -1.95%; `CC1Sc2ccc(S(=O)(=O)N3CCC(C(=O)N4CCN(C)CC4)CC3)cc2NC1=O` (centres unmarked): 19.2%; `C=CCN1C(=O)C(O)(CC(=O)c2ccc(OC)cc2OC)c2cc(Br)ccc21` (centres unmarked): -3.68%.
Next, `CCC1(C)CC(=O)N(c2ccc(C(=O)O)c(O)c2)C1=O` (centres unmarked): 6.39%; `COc1cc(NC(=O)c2cc(OC)c(OC)c(OC)c2)ccc1NC(=O)c1cccs1`: 3.62%; `O=C(CNC(=O)c1ccccc1)NCCO`: 11.9%.
The same measure for `CC(C)(C)OC(=O)COc1cc(O)c2c(=O)cc(-c3ccccc3)oc2c1`: 13.5%.
`COc1ccc(NC(=O)CSc2ccc(-c3cccnc3)nn2)cc1`: the “hERG current change (%, negative = inhibition) at 10uM” value is on record as -2.73%.
The same measure for `O=C(Nc1ccc(Oc2ccccc2)cc1)N[C@@H](Cc1ccccc1)C(=O)O`: 25.9%.
Next, `CCc1ccc(/C=C2\SC(=S)N(CCC(=O)Nc3cc(C)on3)C2=O)cc1`: 15.1%; `Cc1cc([N+](=O)[O-])c(NCCCCCCO)c([N+](=O)[O-])c1`: -38.1%; `O=C(NCCc1ccc(Cl)cc1)C1CC(=O)N(C2CCCCC2)C1` (centres unmarked): -19.6%.
For `O=C(/C=C/c1ccc(F)cc1)N1CCc2ccccc2C1`, the “hERG current change (%, negative = inhibition) at 10uM” value is reported as -11.2%.
Next, `O=C(NC1CCCC1)C(c1ccc(N2CCOCC2)cc1)N(Cc1ccco1)C(=O)c1ccco1` (centres unmarked): -8.59%; `CC(C)(C)Nc1c([N+](=O)[O-])c(=O)sc2ccccc12`: 5.21%; `CSc1ccc(S(=O)(=O)Nc2ccc3c(c2)NC(=O)CC3)cc1`: -8.76%.
Next, `C/C(=N\NC(=O)c1sccc1-n1cccc1)c1cccs1`: 4.49%.
For the molecule `O=C(Nc1cccc(C(F)(F)F)c1)c1cncs1`, the “hERG current change (%, negative = inhibition) at 10uM” value was 20%.
Consider `CCOc1ccccc1N(C(=O)c1snc(C(N)=O)c1N)C(CC)C(=O)NC1CCCC1` (centres unmarked), for which the “hERG current change (%, negative = inhibition) at 10uM” value was determined as 16.7%.
With `O=C(NCCCN1CCN(CCCNC(=O)c2ccc3c(c2)OCO3)CC1)c1ccc2c(c1)OCO2`, the “hERG current change (%, negative = inhibition) at 10uM” value is -36.8%.
Next, `O=C(Cc1ccccc1)NCC(=O)OCC(=O)c1ccc([N+](=O)[O-])cc1`: 8.93%.
The same measure for `O=C(CSc1nnc(NC(=O)CN2CCOCC2)s1)Nc1ccccc1`: 8.56%; for `COc1ccccc1N(CC(=O)NCCSc1ccccn1)S(=O)(=O)c1ccccc1`: 2.58%; for `Cc1ccc(C(=O)NCC(C)NC(=O)c2ccc(C)c(C)c2)cc1C` (centres unmarked): 17.3%.
Regarding `CCOC(=O)N1CCN(C(=O)c2c(N)no[n+]2[O-])CC1`, the “hERG current change (%, negative = inhibition) at 10uM” value was found to be 14%.
Next, `COc1ccc(NC(=S)Nc2cc(S(=O)(=O)N3CCCCC3)ccc2OC)cc1`: -15.1%; `CC(=O)Nc1ccc(-c2csc(Nc3ccccn3)n2)cc1`: 5.07%.
The same measure for `CCN(c1cccc(C)c1)S(=O)(=O)c1cc2c3c(c1)CCN3C(=O)CC2`: -1.93%; for `CC(=O)C1(c2ccccc2)CCN(C(=O)C2CCC(=O)N(CCc3cccc(F)c3)C2)CC1` (centres unmarked): -20.5%.
The same measure for `Cc1ccc(S(=O)(=O)N2CCN(C(=O)COC(=O)c3ccc(Cl)nc3)CC2)c(C)c1`: 1.86%; for `Cc1cn(Cc2ccccc2)c(=O)[nH]c1=O`: 1.69%.
Turning to `C=CCn1c(N(C)C)nc2c1c(=O)[nH]c(=O)n2C`, the “hERG current change (%, negative = inhibition) at 10uM” value was determined as 5.16%.
Next, `CCn1c(NCc2ccco2)nc2c1c(=O)n(C)c(=O)n2C`: -10.7%; `CCN(CC)S(=O)(=O)c1ccc(O)c(NC(=O)c2cc(-c3cc(OC)c(OC)c(OC)c3)nc3ccccc23)c1`: -59.2%.
The same measure for `O=C(CSc1ccc([N+](=O)[O-])cn1)Nc1ccc(N2CCOCC2)c(Cl)c1`: -33.2%; for `CCCCn1c(CNC(=O)CC)nc2ccccc21`: -0.154%; for `C/C=C(\C)CN1CCN(c2ccc(C)cc2)CC1`: -7.37%.
`CCOc1ccc(S(=O)(=O)N2CCC(C(=O)N3CCOCC3)CC2)cc1Cl`: the “hERG current change (%, negative = inhibition) at 10uM” value is recorded as -6.05%.
Turning to `O=C(c1ccccc1)N1CCN(S(=O)(=O)N2CCCCC2)CC1`, the “hERG current change (%, negative = inhibition) at 10uM” value is reported as -0.901%.
With `Cc1ccc(CNC(=O)c2ccc(N3CCC4(CC3)CC(c3cccc(Br)c3)=NO4)c(NC(=O)c3c(Cl)cccc3Cl)c2)cc1`, the “hERG current change (%, negative = inhibition) at 10uM” value is 18.2%.
